Measured values taken from PubChem BioAssay (Tox21).
Where “and” joins values, the source holds several entries; their conditions need not be identical. Identical values can stand only once. The inconclusive results got no clear call from the source; some entries with a clear call stand among them for comparison. For part of these data: A potency beside an inconclusive call is a rough fit, not a confirmed value. Calls of active or inactive are those of the source. Unless noted, the call rests on the fitted dose curve; in most records, active means well fitted curve in the direction sought with a large enough effect in the repeat runs; inconclusive means weak or mixed curves; inactive means no such curve, though single readings can be large; an effect the other way counts as inactive or inconclusive.

Experiments:
[1] = target: Peroxisome proliferator-activated receptor gamma (Homo sapiens) (UniProt P37231); experiment: qHTS assay to identify small molecule agonists of the peroxisome proliferator-activated receptor gamma (PPARg) signaling pathway (AID 743094; active means well fitted activation curve with a large enough effect in the signal ratio in the repeat runs, not every such curve was filed as active; inconclusive means weak or mixed curves, or effect the other way; inactive means no such curve, though single readings can be large or run the other way; the % refers to the signal ratio; further: on the % scale 0 is the no-effect control and ±100 the full control effect); conditions: HEK293H PPARg-UAS-bla, beta-lactamase FRET ratio, 17 h
How it was run: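 Compounds dissolved in DMSO were added to PPARg UAS-bla HEK293H cells for 17 h at 37C, and reporter expression was quantified by fluorescence intensity after 1 h with LiveBLAzer B/G FRET substrate.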

[2] = target: Peroxisome proliferator-activated receptor gamma (Homo sapiens) (UniProt P37231); experiment: qHTS assay to identify small molecule antagonists of the peroxisome proliferator-activated receptor gamma (PPARg) signaling pathway (AID 743191; calls by dose curve; further: potency means the concentration at half of the fitted maximal effect; nearly all actives have a fitted effect of over 30% in size); conditions: HEK293H PPARg-UAS-bla, beta-lactamase ratio, antagonist, 17 h; ratio activity, negative = inhibition: at 62.6 µM (top of the series) unless noted
How it was run: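 GeneBLAzer PPARg UAS-bla HEK293H cells carrying a UAS-driven beta-lactamase reporter were plated at 3000 cells/well, preincubated 5 h at 37C, then given compound for 17 h at 37C; LiveBLAzer B/G FRET substrate was read after 1 h at room temperature.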

[3] = qHTS assay to identify small molecule antagonists of the peroxisome proliferator-activated receptor gamma (PPARg) signaling pathway - cell viability counter screen (AID 743194); conditions: PPARg-bla HEK293H viability, CellTiter-Glo luminescence, 17 h, co-treated with 50 nM rosiglitazone; activity change, negative = cytotoxicity: at 62.6 µM (top of the series) unless noted; further: potency means the concentration at half of the fitted maximal effect; nearly all actives have a fitted effect of over 55% in size
How it was run: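 PPARg-UAS-bla HEK293H cells were plated, rested 5 h at 37 C, then treated with compounds plus rosiglitazone (50 nM final) for 17 h at 37 C; viability was then read by CellTiter-Glo luminescence after 30 min at room temperature.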

[4] = target: Bile acid receptor (Homo sapiens) (UniProt Q96RI1); experiment: qHTS assay to identify small molecule antagonists of the farnesoid-X-receptor (FXR) signaling pathway (AID 743217; active means well fitted inhibition curve with a large enough effect in the signal ratio in the repeat runs, not every such curve was filed as active; inconclusive means weak or mixed curves, or effect the other way; inactive means no such curve, though single readings can be large or run the other way; the % refers to the signal ratio; further: potency means the concentration at half of the fitted maximal effect); conditions: HEK293T FXR-UAS-bla, beta-lactamase ratio, CDCA-stimulated, 16 h; activity change, negative = inhibition: at 62.6 µM (top of the series) unless noted
How it was run: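 GeneBLAzer FXR-UAS-bla HEK 293T, CDCA-stimulated (50 uM final). Compound treatment 16 h, 37 °C. Detection: beta-lactamase cleavage of B/G FRET substrate, fluorescence.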

[5] = qHTS assay to identify small molecule agonists of the farnesoid-X-receptor (FXR) signaling pathway - cell viability counter screen (AID 743218); conditions: FXR-bla HEK293T viability, CellTiter-Glo luminescence, 16 h; viability change, negative = cytotoxic: at 62.6 µM (top of the series) unless noted; further: potency means the concentration at half of the fitted maximal effect; nearly all actives have a fitted effect of over 45% in size
How it was run: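 Parallel cytotoxicity test: compound-treated (16 h, 37 C) HEK 293T FXR-bla reporter cells were lysed with CellTiter-Glo and luminescence recorded.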

[6] = target: Bile acid receptor (Homo sapiens) (UniProt Q96RI1); experiment: qHTS assay to identify small molecule agonists of the farnesoid-X-receptor (FXR) signaling pathway (AID 743220; active means well fitted activation curve with a large enough effect in the signal ratio in the repeat runs, not every such curve was filed as active; inconclusive means weak or mixed curves, or effect the other way; the % refers to the signal ratio; further: potency means the concentration at half of the fitted maximal effect); conditions: HEK293T FXR-UAS-bla, beta-lactamase FRET ratio, 16 h; activation: at 62.6 µM (top of the series) unless noted
How it was run: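 Beta-lactamase reporter under UAS control in GeneBLAzer FXR HEK 293T cells (5000/well) measured with LiveBLAzer FRET substrate after 2 h at room temperature. Compound exposure lasted 16 h at 37C.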

[7] = qHTS assay to identify small molecule antagonists of the farnesoid-X-receptor (FXR) signaling pathway - cell viability counter screen (AID 743221; active means well fitted cell-killing curve with a large enough effect in the repeat runs, not every such curve was filed as active; inconclusive means weak or mixed curves, or effect the other way; inactive means no such curve, though single readings can be large or run the other way; further: nearly all actives have a fitted effect of over 50% in size; further: potency means the concentration at half of the fitted maximal effect); conditions: FXR-bla HEK293T viability, CellTiter-Glo luminescence, 16 h; activity change, negative = cytotoxicity: at 62.6 µM (top of the series)
How it was run: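 Compound effects on cell number were measured as CellTiter-Glo luminescence in HEK 293T cells expressing FXR-UAS-bla, after 16 h at 37 C with 50 uM CDCA (final).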

[8] = target: Vitamin D3 receptor (Homo sapiens) (UniProt P11473); experiment: qHTS assay to identify small molecule agonists of the vitamin D receptor (VDR) signaling pathway (AID 743222; calls by dose curve; further: on the % scale 0 is the no-effect control and ±100 the full control effect); conditions: HEK293T VDR-UAS-bla, beta-lactamase FRET ratio, 16 h; activation: at 63.5 µM (top of the series) unless noted
How it was run: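 In VDR-bla cells, compound-induced beta-lactamase expression is quantified by FRET substrate fluorescence. Treatment lasts 16 h at 37C; substrate develops 2 h at room temperature.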

[9] = target: Vitamin D3 receptor (Homo sapiens) (UniProt P11473); experiment: qHTS assay to identify small molecule antagonists of the vitamin D receptor (VDR) signaling pathway (AID 743223; active means well fitted inhibition curve with a large enough effect in the signal ratio in the repeat runs, not every such curve was filed as active; inconclusive means weak or mixed curves, or effect the other way; inactive means no such curve, though single readings can be large or run the other way; the % refers to the signal ratio; further: potency means the concentration at half of the fitted maximal effect); conditions: VDR-UAS-bla HEK293T, beta-lactamase FRET ratio, 16 h; activity change, negative = inhibition: at 61 µM (top of the series) unless noted
How it was run: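 Beta-lactamase activity in VDR-bla cells is measured by FRET substrate fluorescence (2 h, room temperature) after cells spend 16 h at 37C with test compound and 3 nM final 1alpha,25-dihydroxyvitamin D3.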

[10] = qHTS assay to identify small molecule antagonists of the vitamin D receptor (VDR) signaling pathway - cell viability counter screen (AID 743225); conditions: VDR-bla HEK293T viability, CellTiter-Glo luminescence, 16 h; viability change, negative = cytotoxic: at 61 µM (top of the series) unless noted; further: potency means the concentration at half of the fitted maximal effect; nearly all actives have a fitted effect of over 50% in size
How it was run: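 In this counter screen, VDR-bla HEK 293T cells receive test compound plus 3 nM final calcitriol for 16 h at 37C. Room-temperature steps of 2 h with the beta-lactamase substrate, then 30 min with CellTiter-Glo, precede the luminescence read.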

[11] = qHTS assay for small molecule agonists of the antioxidant response element (ARE) signaling pathway (AID 743202; active means well fitted activation curve with a large enough effect in the signal ratio in the repeat runs, not every such curve was filed as active; inconclusive means weak or mixed curves, or effect the other way; inactive means no such curve, though single readings can be large or run the other way; the % refers to the signal ratio; further: potency means the concentration at half of the fitted maximal effect; on activation: on the % scale 0 is the no-effect control and ±100 the full control effect); conditions: HepG2 ARE-bla reporter, beta-lactamase FRET, 16 h; activation: at 73.3 µM (top of the series) unless noted
How it was run: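 Read-out: LiveBLAzer B/G FRET substrate fluorescence after 2 h at room temperature, following 16 h compound treatment at 37 C of HepG2 cells carrying an ARE-driven beta-lactamase reporter.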

[12] = qHTS assay for small molecule agonists of the antioxidant response element (ARE) signaling pathway - cell viability counter screen (AID 743203; calls by dose curve; further: potency means the concentration at half of the fitted maximal effect; nearly all actives have a fitted effect of over 55% in size); conditions: ARE-bla HepG2 viability, CellTiter-Glo luminescence, 16 h; viability change, negative = cytotoxic: at 73.3 µM (top of the series)
How it was run: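 Following 16 hrs of compound treatment at 37C, HepG2 cells with an ARE-controlled beta-lactamase gene were lysed with CellTiter-Glo. Luminescence was read after 30 min at room temperature.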

[13] = target: Peroxisome proliferator-activated receptor delta (Homo sapiens) (UniProt Q03181); experiment: qHTS assay to identify small molecule agonists of the peroxisome proliferator-activated receptor delta (PPARd) signaling pathway (AID 743212; calls by dose curve; further: potency means the concentration at half of the fitted maximal effect); conditions: HEK293H PPARd-UAS-bla, beta-lactamase FRET ratio, 17 h; activation: at 62.6 µM (top of the series) unless noted
How it was run: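 GeneBLAzer PPARd UAS-bla HEK293H cells (beta-lactamase reporter under UAS control), plated and rested 5 h at 37 C, then exposed to compounds in DMSO at 37 C; LiveBLAzer B/G FRET substrate added, 2 h room temperature, fluorescence read.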

[14] = qHTS assay to identify small molecule antagonists of the peroxisome proliferator-activated receptor delta (PPARd) signaling pathway - cell viability counter screen (AID 743213); conditions: PPARd-bla HEK293H viability, CellTiter-Glo luminescence, 17 h; viability change, negative = cytotoxic: at 62 µM (top of the series) unless noted; further: potency means the concentration at half of the fitted maximal effect; nearly all actives have a fitted effect of over 50% in size
How it was run: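 Cytotoxicity counter screen: CellTiter-Glo luminescence read 30 min after addition, in the same wells as the reporter assay. There, PPARd UAS-bla HEK293H cells (3000/well) were treated 17 h at 37 C with compound and 300 nM L165041.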

[15] = target: Peroxisome proliferator-activated receptor delta (Homo sapiens) (UniProt Q03181); experiment: qHTS assay to identify small molecule antagonists of the peroxisome proliferator-activated receptor delta (PPARd) signaling pathway (AID 743215; active means well fitted inhibition curve with a large enough effect in the signal ratio in the repeat runs, not every such curve was filed as active; inconclusive means weak or mixed curves, or effect the other way; inactive means no such curve, though single readings can be large or run the other way; the % refers to the signal ratio); conditions: HEK293H PPARd-UAS-bla, beta-lactamase FRET ratio, antagonist, 17 h; ratio activity, negative = inhibition: at 62 µM (top of the series) unless noted
How it was run: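 HEK293H UAS-bla, PPARd; agonist L165041 300 nM final with cpd in DMSO; 37 C 17 h; FRET substrate, RT 2 h; fluorescence intensity.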

[16] = qHTS assay to identify small molecule agonists of the vitamin D receptor (VDR) signaling pathway - cell viability counter screen (AID 743224); conditions: VDR-bla HEK293T viability, CellTiter-Glo luminescence, 16 h; activity change, negative = cytotoxicity: at 62.6 µM (top of the series) unless noted; further: potency means the concentration at half of the fitted maximal effect; nearly all actives have a fitted effect of over 50% in size
How it was run: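 Plated VDR-bla cells (4 h, 37C) received compound, incubated 16 h, then LiveBLAzer substrate 2 h RT; CellTiter-Glo added afterwards, luminescence read at 30 min.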

[17] = qHTS assay to identify small molecule that activate the aryl hydrocarbon receptor (AhR) signaling pathway - cell viability counter screen (AID 743086); further: potency means the concentration at half of the fitted maximal effect; nearly all actives have a fitted effect of over 45% in size
How it was run: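 HepG2-AhR-luc (HG2L7.5c1) cells, 4000/well, were preincubated 5 h at 37C, exposed to compound in qHTS format for 24 hr at 37C, then given CellTiter-Fluor for 30 min; viability was read as fluorescence in the reporter wells.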

[18] = qHTS assay for small molecule activators of the heat shock response signaling pathway (AID 743210; active means well fitted activation curve with a large enough effect in the signal ratio in the repeat runs, with a control signal flat, not every such curve was filed as active; inconclusive means weak or mixed curves; the % refers to the signal ratio; further: potency means the concentration at half of the fitted maximal effect; on activation: on the % scale 0 is the no-effect control and ±100 the full control effect); conditions: HeLa HSE-bla reporter, beta-lactamase ratio, 5 h; activation: at 62.6 µM (top of the series)
How it was run: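 HSE-bla HeLa cells (beta-lactamase reporter under heat shock response elements) were exposed to compounds for 5 h at 37 C, then loaded with LiveBLAzer B/G FRET substrate for 2.5 h at room temperature before fluorescence reading.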

[19] = qHTS assay to identify small molecule agonists of the peroxisome proliferator-activated receptor delta (PPARd) signaling pathway - cell viability counter screen (AID 743211); conditions: PPARd-bla HEK293H viability, CellTiter-Glo luminescence, 17 h; activity change, negative = cytotoxicity: at 62.6 µM (top of the series); further: potency means the concentration at half of the fitted maximal effect; nearly all actives have a fitted effect of over 55% in size
How it was run: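 Following 5 h plating at 37 C and 5% CO2, PPARd UAS-bla HEK293H cells took up test compounds for 17 h. Viability was quantified by luminescence 30 min after CellTiter-Glo addition at room temperature.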
Tags describe the fitted curve by direction and shape or compound fluorescence and quenching.

UniProt P37231, sequence (P37231 whole entry, looked up): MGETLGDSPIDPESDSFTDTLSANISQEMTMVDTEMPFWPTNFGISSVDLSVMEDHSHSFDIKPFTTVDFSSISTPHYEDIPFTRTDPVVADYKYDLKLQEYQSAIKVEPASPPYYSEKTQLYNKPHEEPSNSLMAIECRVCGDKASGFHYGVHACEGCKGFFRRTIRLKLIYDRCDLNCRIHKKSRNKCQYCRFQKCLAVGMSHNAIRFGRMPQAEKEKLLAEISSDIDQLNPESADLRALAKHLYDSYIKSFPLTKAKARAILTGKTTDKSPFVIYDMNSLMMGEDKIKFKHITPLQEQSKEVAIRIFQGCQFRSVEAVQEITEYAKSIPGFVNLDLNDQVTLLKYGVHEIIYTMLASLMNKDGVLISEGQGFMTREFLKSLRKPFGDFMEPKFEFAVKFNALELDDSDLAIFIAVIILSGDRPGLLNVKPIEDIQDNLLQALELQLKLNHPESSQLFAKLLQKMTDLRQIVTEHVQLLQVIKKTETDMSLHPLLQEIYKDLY
UniProt Q03181, sequence (Q03181 whole entry, looked up): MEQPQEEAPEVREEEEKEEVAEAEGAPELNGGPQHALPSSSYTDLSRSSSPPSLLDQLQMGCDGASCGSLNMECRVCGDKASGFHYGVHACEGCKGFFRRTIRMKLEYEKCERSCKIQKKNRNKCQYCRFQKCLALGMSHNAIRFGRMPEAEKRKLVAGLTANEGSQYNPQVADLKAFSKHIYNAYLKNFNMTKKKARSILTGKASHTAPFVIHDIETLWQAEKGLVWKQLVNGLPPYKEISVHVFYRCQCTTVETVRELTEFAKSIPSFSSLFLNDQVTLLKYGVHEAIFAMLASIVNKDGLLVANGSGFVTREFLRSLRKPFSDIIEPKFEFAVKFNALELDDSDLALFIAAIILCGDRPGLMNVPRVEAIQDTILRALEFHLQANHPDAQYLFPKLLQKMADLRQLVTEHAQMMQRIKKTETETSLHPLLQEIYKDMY
UniProt Q96RI1, sequence (Q96RI1 whole entry, looked up): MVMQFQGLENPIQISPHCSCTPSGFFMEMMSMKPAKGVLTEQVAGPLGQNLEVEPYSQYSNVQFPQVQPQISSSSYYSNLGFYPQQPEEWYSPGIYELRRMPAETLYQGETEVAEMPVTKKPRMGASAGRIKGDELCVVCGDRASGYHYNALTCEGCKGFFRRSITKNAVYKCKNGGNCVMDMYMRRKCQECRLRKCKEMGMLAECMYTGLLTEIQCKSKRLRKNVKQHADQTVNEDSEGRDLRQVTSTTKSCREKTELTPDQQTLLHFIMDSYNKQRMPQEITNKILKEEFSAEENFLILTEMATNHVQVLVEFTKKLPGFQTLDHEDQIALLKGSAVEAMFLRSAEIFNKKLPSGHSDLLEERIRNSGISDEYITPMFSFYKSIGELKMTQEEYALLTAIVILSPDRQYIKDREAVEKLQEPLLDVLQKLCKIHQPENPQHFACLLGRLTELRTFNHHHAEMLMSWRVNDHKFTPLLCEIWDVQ
UniProt P11473, sequence (P11473 whole entry, looked up): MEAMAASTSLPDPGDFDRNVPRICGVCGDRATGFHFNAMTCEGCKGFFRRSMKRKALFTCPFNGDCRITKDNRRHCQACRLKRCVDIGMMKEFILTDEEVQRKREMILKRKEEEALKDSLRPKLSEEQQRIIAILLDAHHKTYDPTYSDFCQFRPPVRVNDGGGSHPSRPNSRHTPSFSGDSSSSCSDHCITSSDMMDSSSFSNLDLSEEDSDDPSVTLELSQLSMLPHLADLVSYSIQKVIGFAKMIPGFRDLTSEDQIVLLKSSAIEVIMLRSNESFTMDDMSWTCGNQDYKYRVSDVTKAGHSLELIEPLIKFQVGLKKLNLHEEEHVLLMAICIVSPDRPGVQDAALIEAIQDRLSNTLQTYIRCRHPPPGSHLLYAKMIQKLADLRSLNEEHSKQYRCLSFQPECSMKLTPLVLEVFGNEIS

CCCCCCCCCCCCCCCC[N+](C)(C)Cc1ccccc1
activation ([1]; at 57 µM (top of the series)): inconclusive: -17.6% and inactive: -8.76% | activation ([1]; at 78.9 µM (top of the series)): inconclusive: -10.5% | Potency [2]: inconclusive: 71.4 µM [cytotoxic] and inconclusive: 55.9 µM [cytotoxic, single point] and inconclusive: 33.5 µM [inhibitor, single point] | Potency [3]: active: 25.3 µM and active: 17.7 µM and active: 33.5 µM | Potency [4]: inconclusive: 63.6 µM and inconclusive: 49.8 µM [cytotoxic] and inconclusive: 29.8 µM [inhibitor, single point] | Potency [5]: active: 25.3 µM and active: 22.3 µM and active: 13.3 µM | Potency [6]: inconclusive: 55.9 µM [cytotoxic] | Potency [7]: active: 63.6 µM and active: 25 µM and active: 16.8 µM | activation [8]: inconclusive: 3.96% | Potency [9]: active: 63.6 µM and active: 49.8 µM and inconclusive: 26.8 µM [single point] | Potency [10]: active: 45 µM and active: 17.7 µM and active: 21.3 µM

NC(=O)n1c(O)c(C(=O)c2cccs2)c2cc(Cl)ccc21
activation ([1]; activation: at 57 µM (top of the series) unless noted): inconclusive: -19.7% | Potency [2]: inconclusive: 1.06 µM [rising, full curve] | Potency [3]: inconclusive: 1.06 µM [cytotoxic, full curve, poor fit] | Potency [11]: inconclusive: 16.8 µM [rising, partial curve] | Potency [12]: inconclusive: 3.76 µM [cytotoxic, full curve, poor fit] | Potency [13]: inconclusive: 9.44 µM [rising, full curve] | Potency [14]: inconclusive: 2.66 µM [cytotoxic, full curve, poor fit] | Potency [15]: inconclusive: 10.6 µM [rising, full curve] | Potency [4]: inconclusive: 11.9 µM [rising, partial curve] | Potency [9]: inconclusive: 12 µM [fluorescent, partial curve, poor fit] | Potency [16]: inconclusive: 2.98 µM [cytotoxic, partial curve, poor fit]

Cc1cc2nc3c(=O)[nH]c(=O)nc-3n(C[C@H](O)[C@H](O)[C@H](O)CO)c2cc1C
Potency [17]: inconclusive: 29.8 µM [rising, partial curve] [middle of 4 runs] | activation [11]: inconclusive: -18.8% [at 34.3 µM] | Potency [18]: inactive and inconclusive: 40.5 µM | Potency [13]: inconclusive: 22.8 µM [rising, partial curve] | Potency [6]: inconclusive: 45.5 µM [rising, partial curve] | Potency [7]: inactive

CCCCOCCOCCOCc1cc2c(cc1CCC)OCO2
Potency [17]: inconclusive: 31 µM [rising, partial curve] | Potency [3]: inconclusive: 2.21 µM [cytotoxic, full curve, poor fit] | Potency [19]: inconclusive: 69.4 µM [cytotoxic, single point] and inconclusive: 33.5 µM [cytotoxic, partial curve, poor fit] | Potency [14]: inconclusive: 19.7 µM [cytotoxic, single point] | Potency [4]: inconclusive: 62.4 µM [inhibitor]
